# This is one part of the list.
# B1: Gal 8 (Mus musculus), Q9JL15 (protein)
# chain: MGGSHHHHHHGMASMLSLNNLQNIIYNPIIPYVGTITEQLKPGSLIVIRGHVPKDSERFQVDFQLGNSLKPRADVAFHFNPRFKRSSCIVCNTLTQEKWGWEEITYDMPFRKEKSFEIVFMVLKNKFQVAVNGRHVLLYAHRISPEQIDTVGIYGKVNIHSIGFRFSSASALPHTLGDLQSMETSALGLTQINRENIQKPGKLQLSLPFEARLNASMGPGRTVVIKGEVNTNARSFNVDLVAGKTRDIALHLNPRLNVKAFVRNSFLQDAWGEEERNITCFPFSSGMYFEMIIYCDVREFKVAINGVHSLEYKHRFKDLSSIDTLSVDGDIRLLDVRSW
# Columns and labels:
# Experiment in all cases: glycan array binding signal (z-score within array); higher = stronger binding
# Settings in all cases: glycan notation: IUPAC condensed, linker removed
# [1] = biological target: Neu5Ac(a2-6)GlcNAc(b1-4)GlcNAc
# Summary of the method: (§1)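 Arrays were curated from the Consortium for Functional Glycomics database, 3228 in total, and kept only where the protein sequence was available. Binding is expressed as a within-array Z-score. This score was averaged across arrays of the same protein sequence at different concentrations or buffers and across linkers, and negative values can be read as non-binding.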
# [2] = biological target: Neu5Ac(a2-6)GlcNAc(b1-4)GlcNAc(b1-4)GlcNAc
# Summary of the method: as §1
# Neu5Ac(a2-8)Neu5Ac = biological target: Neu5Ac(a2-8)Neu5Ac
# Summary of the method: as §1
# [3] = biological target: Neu5Ac(a2-8)Neu5Ac(a2-3)Gal(b1-3)GalNAc(b1-4)[Neu5Ac(a2-3)]Gal(b1-4)Glc
# Summary of the method: as §1
# [4] = biological target: Neu5Ac(a2-8)Neu5Ac(a2-3)Gal(b1-3)GalNAc(b1-4)[Neu5Ac(a2-8)Neu5Ac(a2-3)]Gal(b1-4)Glc
# Summary of the method: as §1
# [5] = biological target: Neu5Ac(a2-8)Neu5Ac(a2-3)Gal(b1-4)Glc
# Summary of the method: as §1
# [6] = biological target: Neu5Ac(a2-8)Neu5Ac(a2-3)Gal(b1-4)GlcNAc
# Summary of the method: as §1
# [7] = biological target: Neu5Ac(a2-8)Neu5Ac(a2-3)[Gal(b1-3)GalNAc(b1-4)]Gal(b1-4)Glc
# Summary of the method: as §1
# [8] = biological target: Neu5Ac(a2-8)Neu5Ac(a2-3)[GalNAc(b1-4)]Gal(b1-4)Glc
# Summary of the method: as §1
# [9] = biological target: Neu5Ac(a2-8)Neu5Ac(a2-8)Neu5Ac
# Summary of the method: as §1
# [10] = biological target: Neu5Ac(a2-8)Neu5Ac(a2-8)Neu5Ac(a2-3)Gal(b1-4)Glc
# Summary of the method: as §1
# [11] = biological target: Neu5Ac(a2-8)Neu5Ac(a2-8)Neu5Ac(a2-3)[Gal(b1-3)GalNAc(b1-4)]Gal(b1-4)Glc
# Summary of the method: as §1
# [12] = biological target: Neu5Ac(a2-8)Neu5Ac(a2-8)Neu5Ac(a2-3)[GalNAc(b1-4)]Gal(b1-4)Glc
# Summary of the method: as §1
# [13] = biological target: Neu5Ac(a2-8)Neu5Ac(a2-8)Neu5Ac(a2-8)Neu5Ac(a2-3)[GalNAc(b1-4)]Gal(b1-4)Glc
# Summary of the method: as §1
# [14] = biological target: Neu5Ac(a2-8)Neu5Gc(a2-3)Gal(b1-4)GlcNAc
# Summary of the method: as §1
# [15] = biological target: Neu5Ac(b2-6)Gal(b1-4)GlcNAc
# Summary of the method: as §1
# Neu5Ac(b2-6)GalNAc = biological target: Neu5Ac(b2-6)GalNAc
# Summary of the method: as §1
# [16] = biological target: Neu5Ac9Ac(a2-3)Gal(b1-3)GlcNAc
# Summary of the method: as §1
# [17] = biological target: Neu5Ac9Ac(a2-3)Gal(b1-4)GlcNAc
# Summary of the method: as §1
# [18] = biological target: Neu5Ac9Ac(a2-6)Gal(b1-4)GlcNAc
# Summary of the method: as §1
# [19] = biological target: Neu5Gc(a2-3)Gal(b1-3)GlcNAc
# Summary of the method: as §1
# [20] = biological target: Neu5Gc(a2-3)Gal(b1-3)[Fuc(a1-4)]GlcNAc
# Summary of the method: as §1
# Neu5Gc(a2-3)Gal(b1-4)Glc = biological target: Neu5Gc(a2-3)Gal(b1-4)Glc
# Summary of the method: as §1
# [21] = biological target: Neu5Gc(a2-3)Gal(b1-4)GlcNAc
# Summary of the method: as §1
# [22] = biological target: Neu5Gc(a2-3)Gal(b1-4)GlcNAc(b1-3)Gal(b1-4)GlcNAc(b1-2)Man(a1-3)[Neu5Gc(a2-3)Gal(b1-4)GlcNAc(b1-3)Gal(b1-4)GlcNAc(b1-2)Man(a1-6)]Man(b1-4)GlcNAc(b1-4)GlcNAc
# Summary of the method: as §1
# [23] = biological target: Neu5Gc(a2-3)Gal(b1-4)[Fuc(a1-3)]GlcNAc
# Summary of the method: as §1
# [24] = biological target: Neu5Gc(a2-6)Gal(b1-4)GlcNAc
# Summary of the method: as §1
# Neu5Gc(a2-6)GalNAc = biological target: Neu5Gc(a2-6)GalNAc
# Summary of the method: as §1
# [25] = biological target: Neu5Gc(a2-8)Neu5Ac(a2-3)Gal(b1-4)GlcNAc
# Summary of the method: as §1
# [26] = biological target: Neu5Gc(a2-8)Neu5Gc(a2-3)Gal(b1-4)GlcNAc
# Summary of the method: as §1
# [27] = biological target: Neu5Gc(a2-8)Neu5Gc(a2-3)Gal(b1-4)GlcNAc(b1-3)Gal(b1-4)GlcNAc
# Summary of the method: as §1
# [28] = biological target: Neu5Gc(a2-8)Neu5Gc(a2-6)Gal(b1-4)GlcNAc
# Summary of the method: as §1
# [29] = biological target: Neu5Gc(b2-6)Gal(b1-4)GlcNAc
# Summary of the method: as §1
binder,measurement,setting,value
B1,glycan array binding signal (z-score),[1],-0.555
same,glycan array binding signal (z-score),[2],-0.545
same,glycan array binding signal (z-score),Neu5Ac(a2-8)Neu5Ac,-0.531
same,glycan array binding signal (z-score),[3],0.316
same,glycan array binding signal (z-score),[4],-0.07
same,glycan array binding signal (z-score),[5],0.578
same,glycan array binding signal (z-score),[6],-0.296
same,glycan array binding signal (z-score),[7],-0.224
same,glycan array binding signal (z-score),[8],-0.538
same,glycan array binding signal (z-score),[9],-0.545
same,glycan array binding signal (z-score),[10],-0.057
same,glycan array binding signal (z-score),[11],-0.539
same,glycan array binding signal (z-score),[12],-0.541
same,glycan array binding signal (z-score),[13],-0.528
same,glycan array binding signal (z-score),[14],-0.294
same,glycan array binding signal (z-score),[15],-0.549
same,glycan array binding signal (z-score),Neu5Ac(b2-6)GalNAc,-0.539
same,glycan array binding signal (z-score),[16],0.182
same,glycan array binding signal (z-score),[17],-0.495
same,glycan array binding signal (z-score),[18],-0.546
same,glycan array binding signal (z-score),[19],0.086
same,glycan array binding signal (z-score),[20],-0.514
same,glycan array binding signal (z-score),Neu5Gc(a2-3)Gal(b1-4)Glc,-0.313
same,glycan array binding signal (z-score),[21],-0.51
same,glycan array binding signal (z-score),[22],0.192
same,glycan array binding signal (z-score),[23],-0.534
same,glycan array binding signal (z-score),[24],-0.526
same,glycan array binding signal (z-score),Neu5Gc(a2-6)GalNAc,-0.497
same,glycan array binding signal (z-score),[25],-0.272
same,glycan array binding signal (z-score),[26],-0.264
same,glycan array binding signal (z-score),[27],-0.061
same,glycan array binding signal (z-score),[28],-0.545
same,glycan array binding signal (z-score),[29],-0.496
